Results: the supplement of paper PMC4967469
A lower IC50 marks a more sensitive line; a limit (>, <) means that the fit lies beyond the doses tested. AUC sums up the same curve from the lowest dose to the 256-fold higher top dose; the more sensitive the line, the further below 1. The top dose, if marked as inferred, is not printed in the source and was worked back from the curve model. For part of these data: Where an entry number is given, a second screen of the drug exists; the two often differ.

What was measured:
AKT inhibitor VIII = compound: O=c1[nH]c2ccccc2n1C1CCN(Cc2ccc(-c3[nH]c4cc5ncnc5cc4nc3-c3ccccc3)cc2)CC1 [AKT inhibitor VIII]; assay: Viability of human cancer cell lines after 72 h of drug (GDSC screen); details: top dose inferred
Protocol: (§1)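 Human cancer cell lines in 384-well plates, medium with 10% serum, drug for 72 h over a 256-fold dose range (nine 2-fold or five 4-fold steps up to the top dose). Adherent lines were fixed and stained with the nucleic acid dye Syto60, suspension lines read with resazurin; signal relative to control wells, capped at 0 and 100%. One two-parameter sigmoid per drug and line, fitted in a mixed model over all curves with the slope shared within a line.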

AICAR = compound: NC(=O)c1ncn([C@@H]2O[C@H](CO)[C@@H](O)[C@H]2O)c1N [AICAR]; assay: as above; details: top dose 2000 µM; top dose inferred
Protocol: as §1

[1] = top dose 2.56 µM, screen: GDSC drug entry 171
[2] = top dose 10.24 µM, screen: GDSC drug entry 228

| Cell Line | AUC (AKT inhibitor VIII; [1]) | IC50 (AKT inhibitor VIII; [1]) [µM] | AUC (AKT inhibitor VIII; [2]) | IC50 (AKT inhibitor VIII; [2]) [µM] | AUC (AICAR) | IC50 (AICAR) [µM] |
| --- | --- | --- | --- | --- | --- | --- |
| KP-3 (pancreas, adherent) | 0.953 | > 2.56 | 0.876 | > 10.2 | 0.948 | > 2000 |
| D-423MG (glioma, adherent) |  |  | 0.921 | > 10.2 | 0.883 | > 2000 |
| KM12 (large intestine, adherent) | 0.975 | > 2.56 | 0.898 | > 10.2 | 0.912 | > 2000 |
| NALM-6 (B-cell leukaemia, suspension) | 0.895 | 2.21 | 0.361 | 0.284 | 0.567 | 184 |
| CAL-120 (breast, adherent) | 0.966 | > 2.56 | 0.89 | > 10.2 | 0.737 | 734 |
| BE-13 (lymphoblastic leukaemia, suspension) | 0.951 | > 2.56 | 0.752 | 3.19 | 0.661 | 338 |
| MN-60 (B-cell leukaemia, suspension) | 0.977 | > 2.56 | 0.69 | 2.23 | 0.957 | > 2000 |
| SK-MG-1 (glioma, adherent) |  |  | 0.987 | > 10.2 | 0.86 | 1720 |
| SK-N-FI (neuroblastoma, adherent) | 0.988 | > 2.56 | 0.945 | > 10.2 | 0.99 | > 2000 |
| MV-4-11 (leukaemia, suspension) | 0.946 | > 2.56 | 0.689 | 1.93 | 0.442 | 89.6 |
| OACp4C (oesophagus, adherent) |  |  | 0.614 | 1.41 | 0.933 | > 2000 |
| JHU-011 (head and neck, adherent) | 0.873 | 2.38 | 0.88 | > 10.2 | 0.631 | 285 |
| RERF-LC-KJ (lung adenocarcinoma, adherent) | 0.874 | > 2.56 | 0.703 | 2.44 | 0.912 | > 2000 |
| CAL-39 (cervix, adherent) | 0.969 | > 2.56 | 0.892 | > 10.2 | 0.872 | > 2000 |
| OCUB-M (breast, adherent) | 0.844 | 1.48 | 0.428 | 0.418 | 0.884 | 1650 |
| SAT (head and neck, adherent) | 0.966 | > 2.56 | 0.974 | > 10.2 | 0.735 | 865 |
| KMH-2 (thyroid, adherent) | 0.968 | > 2.56 | 0.942 | > 10.2 | 0.883 | 1740 |
| ES7 (Ewing sarcoma, adherent) | 0.777 | 1.06 | 0.494 | 0.617 | 0.857 | 1690 |
| NCI-H1581 (large cell lung carcinoma, semi-adherent) | 0.99 | > 2.56 | 0.915 | > 10.2 | 0.906 | > 2000 |
| EFM-192A (breast, adherent) | 0.966 | > 2.56 | 0.804 | 5.8 | 0.985 | > 2000 |
| MFE-280 (endometrium, adherent) | 0.946 | > 2.56 | 0.757 | 4.41 | 0.981 | > 2000 |
| KGN (ovary, adherent) | 0.956 | > 2.56 | 0.828 | 8.26 | 0.638 | 327 |
| LAN-6 (neuroblastoma, adherent) | 0.971 | > 2.56 | 0.838 | 8.85 | 0.984 | > 2000 |
| RCM-1 (large intestine, adherent) | 0.96 | > 2.56 | 0.975 | > 10.2 | 0.944 | > 2000 |
| MIA-PaCa-2 (pancreas, adherent) | 0.965 | > 2.56 | 0.94 | > 10.2 | 0.908 | > 2000 |
| GI-ME-N (neuroblastoma, adherent) | 0.946 | > 2.56 | 0.896 | > 10.2 | 0.956 | > 2000 |

| Cell Line | AUC (AKT inhibitor VIII; [1]) | IC50 (AKT inhibitor VIII; [1]) [µM] | AUC (AKT inhibitor VIII; [2]) | IC50 (AKT inhibitor VIII; [2]) [µM] | AUC (AICAR) | IC50 (AICAR) [µM] |
| --- | --- | --- | --- | --- | --- | --- |
| M14 (melanoma, adherent) | 0.956 | > 2.56 | 0.976 | > 10.2 | 0.89 | > 2000 |
| COR-L321 (lung, suspension) |  |  | 0.872 | 9.72 | 0.952 | > 2000 |
| DG-75 (Burkitt lymphoma, suspension) | 0.987 | > 2.56 | 0.853 | 8.16 | 0.812 | 1080 |
| L-363 (myeloma, suspension) | 0.985 | > 2.56 | 0.868 | 7.27 | 0.672 | 349 |
| COLO-205 (large intestine, suspension) | 0.848 | 1.86 | 0.891 | > 10.2 | 0.918 | > 2000 |
| OCI-M1 (acute myeloid leukaemia, suspension) | 0.995 | > 2.56 | 0.543 | 0.815 | 0.958 | > 2000 |
| KM-H2 (Hodgkin lymphoma, suspension) | 0.973 | > 2.56 | 0.873 | 7.37 | 0.819 | 924 |
| JHOS-3 (ovary, adherent) |  |  | 0.897 | > 10.2 | 0.897 | > 2000 |
| NCI-H716 (large intestine, suspension) | 0.982 | > 2.56 | 0.699 | 2.72 | 0.597 | 247 |
| SK-MEL-24 (melanoma, adherent) | 0.931 | > 2.56 | 0.978 | > 10.2 | 0.904 | > 2000 |
| MC-CAR (haematopoietic neoplasm, suspension) | 0.938 | > 2.56 | 0.505 | 0.658 | 0.569 | 188 |
| H2722 (mesothelioma, adherent) | 0.937 | > 2.56 | 0.983 | > 10.2 | 0.984 | > 2000 |
| KELLY (neuroblastoma, adherent) | 0.976 | > 2.56 | 0.963 | > 10.2 | 0.901 | > 2000 |
| KMRC-1 (kidney, adherent) | 0.925 | > 2.56 | 0.981 | > 10.2 | 0.973 | > 2000 |
| PCI-6A (head and neck, adherent) | 0.916 | > 2.56 | 0.853 | 7.77 | 0.813 | 1050 |
| NCI-H630 (large intestine, adherent) | 0.88 | > 2.56 | 0.93 | > 10.2 | 0.855 | 1780 |
| OV-17R (ovary, adherent) |  |  | 0.888 | > 10.2 | 0.981 | > 2000 |
| EFO-27 (ovary, adherent) | 0.946 | > 2.56 | 0.907 | > 10.2 | 0.847 | > 2000 |
| HCC2998 (large intestine, adherent) | 0.982 | > 2.56 | 0.935 | > 10.2 | 0.873 | 1820 |
| 5637 (bladder, adherent) | 0.989 | > 2.56 | 0.895 | > 10.2 | 0.927 | > 2000 |
| CP66-MEL (melanoma, adherent) | 0.981 | > 2.56 | 0.915 | > 10.2 | 0.951 | > 2000 |
| Saos-2 (osteosarcoma, adherent) | 0.942 | > 2.56 | 0.981 | > 10.2 | 0.953 | > 2000 |
| NCI-H1155 (large cell lung carcinoma, suspension) | 0.993 | > 2.56 | 0.906 | 9.54 | 0.831 | 971 |
| EW-18 (Ewing sarcoma, suspension) | 0.956 | > 2.56 | 0.588 | 1.13 | 0.86 | 1870 |
| OVCA420 (ovary, adherent) |  |  | 0.973 | > 10.2 | 0.98 | > 2000 |
| H9 (lymphoid neoplasm, suspension) | 0.988 | > 2.56 | 0.981 | > 10.2 | 0.829 | 954 |

| Cell Line | AUC (AKT inhibitor VIII; [1]) | IC50 (AKT inhibitor VIII; [1]) [µM] | AUC (AKT inhibitor VIII; [2]) | IC50 (AKT inhibitor VIII; [2]) [µM] | AUC (AICAR) | IC50 (AICAR) [µM] |
| --- | --- | --- | --- | --- | --- | --- |
| CAL-12T (non-small cell lung carcinoma, adherent) | 0.953 | > 2.56 | 0.732 | 3.2 | 0.762 | 797 |
| WSU-DLCL2 (B-cell lymphoma, suspension) | 0.993 | > 2.56 | 0.837 | 5.27 | 0.934 | > 2000 |
| LS-513 (large intestine, adherent) | 0.969 | > 2.56 | 0.781 | 4.41 | 0.907 | > 2000 |
| FADU (head and neck, adherent) | 0.979 | > 2.56 | 0.966 | > 10.2 | 0.839 | 1290 |
| OVKATE (ovary, adherent) | 0.959 | > 2.56 | 0.84 | > 10.2 | 0.861 | > 2000 |
| A375 (melanoma, adherent) | 0.973 | > 2.56 | 0.977 | > 10.2 | 0.888 | 1550 |
| SNU-C2B (large intestine, adherent) | 0.937 | > 2.56 | 0.894 | > 10.2 | 0.803 | 1380 |
| HCC1428 (breast, adherent) | 0.964 | > 2.56 | 0.886 | > 10.2 | 0.766 | 802 |
| NH-12 (neuroblastoma, adherent) |  |  | 0.818 | 6.72 | 0.935 | > 2000 |
| NEC8 (testis, adherent) | 0.991 | > 2.56 | 0.967 | > 10.2 | 0.984 | > 2000 |
| Hs683 (glioma, adherent) | 0.921 | > 2.56 | 0.873 | 10.1 | 0.966 | > 2000 |
| HO-1-u-1 (head and neck, adherent) | 0.934 | > 2.56 | 0.889 | > 10.2 | 0.865 | 1640 |
| MDA-MB-330 (breast, adherent) | 0.743 | 0.89 | 0.695 | 2.46 | 0.953 | > 2000 |
| JHH-4 (liver, adherent) | 0.796 | 1.19 |  |  | 0.925 | > 2000 |
| HCC1143 (breast, adherent) | 0.929 | > 2.56 | 0.862 | > 10.2 | 0.85 | > 2000 |
| SW48 (large intestine, adherent) | 0.968 | > 2.56 | 0.964 | > 10.2 | 0.806 | 1010 |
| LS-123 (large intestine, adherent) | 0.965 | > 2.56 | 0.922 | > 10.2 | 0.854 | > 2000 |
| TE-8 (oesophagus, adherent) | 0.915 | > 2.56 | 0.913 | > 10.2 | 0.79 | 961 |
| RF-48 (stomach, adherent) | 0.862 | > 2.56 | 0.742 | 3.49 | 0.893 | > 2000 |
| NCI-H1436 (small cell lung carcinoma, suspension) | 0.965 | > 2.56 | 0.863 | > 10.2 | 0.961 | > 2000 |
| RPMI-8402 (T-cell lymphoblastic leukaemia, suspension) | 0.961 | > 2.56 | 0.318 | 0.218 | 0.806 | 830 |
| SNU-387 (liver, adherent) | 0.857 | 2.55 | 0.72 | 2.96 | 0.901 | > 2000 |
| LK-2 (lung squamous cell carcinoma, adherent) | 0.988 | > 2.56 | 0.865 | 8.17 | 0.916 | > 2000 |
| C3A (liver, adherent) | 0.875 | > 2.56 | 0.988 | > 10.2 | 0.928 | > 2000 |
| LoVo (large intestine, adherent) | 0.895 | > 2.56 | 0.953 | > 10.2 | 0.923 | > 2000 |
| 42-MG-BA (glioma, adherent) | 0.939 | > 2.56 | 0.923 | > 10.2 | 0.867 | > 2000 |
